Measured values from the supplement of paper PMC10126150.
Sequences with one replicate were seen in a single cluster, so their values are uncertain.

tested on: ATP; experiment: switch fluorescence ratio, 500 uM ATP over buffer (Cy3 cluster intensity, sum of 5 cycles each) (fold (ratio)); higher = stronger signal-on switching upon ATP binding; sequences stand for … in TCGTCGGCAGCGTCAGATGTGTATAAGAGACAGTTTTTTTTTTTTTTTTTTTTTTTTT…TC; details: aptamer strand: ATP DNA aptamer (quencher-CACCTGGGGGAGTATTGCGGAGGAAGG + anchor), 100 nM annealed; ATP concentration: 500 uM; one replicate
Procedure, shortened: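 The quencher-labelled ATP aptamer, at 100 nM, was annealed to Cy3-labelled switching-strand clusters on a modified Illumina MiSeq flow-cell. The clusters were imaged in selection buffer, then after 15 min with 500 uM ATP at 22 °C, and this buffer/ATP cycle ran five times with NaOH stripping and re-annealing between runs. Per-cluster fluorescence ratios, summed target-cycle over summed buffer-cycle Cy3 intensity, were averaged per switch-domain sequence. Clusters outside 100-1000 RFU were excluded.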
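Also: ATP exposure 15 min at 22 °C before imaging.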

Sequence | switch fluorescence ratio
CCGTGGAGA | 1.04
CCGTGTAAGT | 0.974
CCGTGTCAAT | 4.45
CCGTTAGGAT | 0.955
CCGTTATGGG | 0.992
CCGTTCGTCC | 1.26
CCGTTGAGAG | 1.07
CCGTTTCGTA | 1.04
CCGTTTGCCT | 1.03
CCGTTTGTAA | 1.48
CCTAAAACAC | 1.15
CCTAAACGGT | 0.994
CCTAAAGATT | 1.05
CCTAAGTGAA | 1.09
CCTAAGTTGA | 1.03
CCTAATCA | 1.06
CCTAATCGAA | 0.989
CCTAATGGTT | 1
CCTAATTGG | 0.967
CCTAATTTGA | 0.978
CCTACAGTG | 1.3
CCTACCACTT | 1.16
CCTAGAGCAT | 2.1
CCTAGAGCTG | 1.12
CCTAGATTTG | 1.01
CCTAGTACAC | 1.15

Sequence | switch fluorescence ratio
CCTAGTGCTA | 1.3
CCTAGTGGGC | 1.08
CCTAGTTCAA | 1.22
CCTATAAGG | 0.995
CCTATCCGTT | 1.09
CCTATCGGCT | 1.06
CCTATGAAAC | 1.11
CCTATTCCTC | 1.1
CCTATTCTGT | 0.92
CCTATTCTTC | 0.983
CCTATTTGGA | 1.01
CCTATTTGTT | 0.976
CCTATTTTA | 0.996
CCTATTTTGC | 1
CCTCAACGTG | 1.15
CCTCAGGGCT | 1.23
CCTCCTCAGG | 2.19
CCTCGTGGAT | 1.13
CCTCGTTTCA | 1.01
CCTCTAAACG | 1.66
CCTCTCATGT | 1.33
CCTCTCGACG | 1.27
CCTCTTACCA | 1.09
CCTGAATTGC | 1.29
CCTGAGAAAG | 1.03
CCTGATAACC | 1.04

Sequence | switch fluorescence ratio
CCTGATGAGG | 1.03
CCTGCCGGGT | 1.05
CCTGCGAAGT | 1.68
CCTGCTAGGA | 1.43
CCTGCTGCCT | 1.05
CCTGGAATGA | 1.06
CCTGGACAA | 1.46
CCTGGACTTG | 1.07
CCTGGAGTGC | 1.1
CCTGGGAGAC | 1.48
CCTGGTAGTA | 1.04
CCTGGTCCAC | 0.947
CCTGGTGATG | 1.17
CCTGGTGGA | 1.07
CCTGTAAGCC | 1.42
CCTGTAAGGT | 1.09
CCTGTATGTT | 0.996
CCTGTCATGG | 1.07
CCTGTGACGA | 1.07
CCTGTGCCCT | 1.09
CCTTAACATA | 0.989
CCTTAAGGGG | 1.09
CCTTACCACG | 1.29
CCTTACCATC | 1.19
CCTTATCATT | 1.06
CCTTATCTCT | 1.05

Sequence | switch fluorescence ratio
CCTTATTCTC | 1.03
CCTTCACATC | 2.89
CCTTCATATT | 2.14
CCTTCCTCG | 2.19
CCTTCTAATA | 1.47
CCTTGAAAAA | 0.96
CCTTGATCGG | 0.995
CCTTTAATTA | 0.995
CCTTTAGACC | 1.03
CCTTTAGGTA | 1.04
CCTTTATTTG | 0.979
CCTTTGCCTC | 2.17
CGAAAACCGC | 1.06
CGAAAAGACA | 1.01
CGAAAAGTGA | 0.997
CGAAAATATG | 1.03
CGAAACCGGG | 1.14
CGAAACGACA | 1.03
CGAAAGACTT | 1.01
CGAAATGTAT | 0.978
CGAAATTCTG | 0.991
CGAAATTGT | 1.87
CGAACAAGAG | 1.11
CGAACCACGA | 1.07
CGAACCCAAG | 1.1
CGAACGGGCG | 0.97

Sequence | switch fluorescence ratio
CGAACTGTTA | 1.01
CGAAGACGAT | 0.989
CGAAGCCCTG | 1.03
CGAAGCCTGC | 2.16
CGAAGGCCGG | 0.899
CGAAGGTTGA | 0.969
CGAAGTTAAC | 1.06
CGAAGTTGGG | 1.01
CGAAGTTTTC | 1.16
CGAATAATGC | 1.32
CGAATACCTC | 1.1
CGAATATAGG | 0.976
CGAATGTGTT | 0.966
CGACAATCCC | 1.37
CGACACGACA | 1.2
CGACACTCAA | 1.25
CGACAGAAAA | 0.96
CGACAGATTG | 1.04
CGACAGGGGA | 1.14
CGACCATGGT | 1.02
CGACCCAAAG | 1.02
CGACCCAGCC | 1.25
CGACCCCGAA | 1.12
CGACCGCTCG | 1.07
CGACCTATTT | 0.975
CGACGCGGCC | 1.06

Sequence | switch fluorescence ratio
CGACGCTTCG | 1.14
CGACGGCAGG | 1.01
CGACGGTTGA | 1.07
CGACGTCAAA | 2.76
CGACTAGCGG | 1.03
CGACTCCAGA | 1.2
CGACTGGTCA | 0.979
CGACTTAAGA | 0.983
CGAGAACATA | 0.982
CGAGAATCGA | 1.02
CGAGACACG | 1.14
CGAGACGCC | 1.1
CGAGAGGTAC | 1.06
CGAGAGGTC | 1.07
CGAGAGTCGC | 0.983
CGAGCACTGA | 1.16
CGAGCAGAGA | 1.13
CGAGCCGTCA | 0.975
CGAGCTATCT | 1.37
CGAGCTATG | 1.12
CGAGGACGG | 1.04
CGAGGACGGA | 1.07
CGAGGGACAG | 1.05
CGAGGGTCCA | 0.955
CGAGGTTGTG | 1.04
CGAGTAATTG | 1.11

Sequence | switch fluorescence ratio
CGAGTACTT | 1.22
CGAGTCGAT | 0.964
CGAGTTATCG | 1.01
CGAGTTCTTA | 0.979
CGAGTTGCGA | 1.01
CGATAACAAT | 1.02
CGATAAGGAC | 1.04
CGATAATGCC | 1.04
CGATACATAT | 1.09
CGATACGCGT | 1.02
CGATACGGGG | 1.01
CGATAGGCGC | 1.04
CGATATAAT | 1.01
CGATATAGTT | 0.961
CGATCAATCA | 0.993
CGATCAATTG | 1.01
CGATGAATAT | 1.04
CGATGACAAC | 1.13
CGATGATGG | 1.01
CGATGCCGGG | 1.02
CGATGGGTGG | 1.01
CGATGGTGCT | 1
CGATGTAGCT | 1.01
CGATGTGATA | 1.18
CGATGTGCT | 0.984
CGATGTTCG | 1.03

Sequence | switch fluorescence ratio
CGATTACGGG | 1.09
CGATTATCAA | 0.993
CGATTCATT | 1.02
CGATTGGGT | 0.979
CGATTTTATC | 0.99
CGATTTTCTA | 1.03
CGATTTTTG | 1.03
CGCAAAGAT | 1.49
CGCAAAGCCA | 1.04
CGCAAAGGCG | 1.06
CGCAAATGCA | 1.72
CGCAACCCTA | 1.75
CGCAACTGCT | 2.36
CGCAAGTCAG | 1.59
CGCAATGGTA | 4.37
CGCAATGTAG | 1.79
CGCACAATTG | 0.987
CGCACACAGG | 1.06
CGCACAGATC | 1.11
